Results published in PubChem BioAssay AID504332 (National Center for Advancing Translational Sciences (NCATS), 2011).
The whole screen tested about 350,000 compounds, of which about 31,000 (8.9%) were called active. Inconclusive means that the source gave no clear call. Such entries were picked first, then a sample of the others. The call rests on the fitted dose curve; in most records, active means well fitted inhibition curve with a large enough effect; inconclusive means small, poorly fitted or top-dose-only effect; inactive means no such curve, though single readings can be large or run the other way. Potencies beside an inconclusive call are fits to weak or partial responses and may not hold up.

molecular target: Histone-lysine N-methyltransferase EHMT2 (Homo sapiens) (UniProt Q96KQ7); assay: qHTS Assay for Inhibitors of Histone Lysine Methyltransferase G9a; conditions: G9a H3K9 monomethylation, AlphaScreen, 2 h; activity, negative = inhibition: at 59 µM (top of the series) unless noted; further: nearly all actives have a fitted effect of over 75% in size
Sequence of UniProt Q96KQ7 (Q96KQ7 whole entry, looked up): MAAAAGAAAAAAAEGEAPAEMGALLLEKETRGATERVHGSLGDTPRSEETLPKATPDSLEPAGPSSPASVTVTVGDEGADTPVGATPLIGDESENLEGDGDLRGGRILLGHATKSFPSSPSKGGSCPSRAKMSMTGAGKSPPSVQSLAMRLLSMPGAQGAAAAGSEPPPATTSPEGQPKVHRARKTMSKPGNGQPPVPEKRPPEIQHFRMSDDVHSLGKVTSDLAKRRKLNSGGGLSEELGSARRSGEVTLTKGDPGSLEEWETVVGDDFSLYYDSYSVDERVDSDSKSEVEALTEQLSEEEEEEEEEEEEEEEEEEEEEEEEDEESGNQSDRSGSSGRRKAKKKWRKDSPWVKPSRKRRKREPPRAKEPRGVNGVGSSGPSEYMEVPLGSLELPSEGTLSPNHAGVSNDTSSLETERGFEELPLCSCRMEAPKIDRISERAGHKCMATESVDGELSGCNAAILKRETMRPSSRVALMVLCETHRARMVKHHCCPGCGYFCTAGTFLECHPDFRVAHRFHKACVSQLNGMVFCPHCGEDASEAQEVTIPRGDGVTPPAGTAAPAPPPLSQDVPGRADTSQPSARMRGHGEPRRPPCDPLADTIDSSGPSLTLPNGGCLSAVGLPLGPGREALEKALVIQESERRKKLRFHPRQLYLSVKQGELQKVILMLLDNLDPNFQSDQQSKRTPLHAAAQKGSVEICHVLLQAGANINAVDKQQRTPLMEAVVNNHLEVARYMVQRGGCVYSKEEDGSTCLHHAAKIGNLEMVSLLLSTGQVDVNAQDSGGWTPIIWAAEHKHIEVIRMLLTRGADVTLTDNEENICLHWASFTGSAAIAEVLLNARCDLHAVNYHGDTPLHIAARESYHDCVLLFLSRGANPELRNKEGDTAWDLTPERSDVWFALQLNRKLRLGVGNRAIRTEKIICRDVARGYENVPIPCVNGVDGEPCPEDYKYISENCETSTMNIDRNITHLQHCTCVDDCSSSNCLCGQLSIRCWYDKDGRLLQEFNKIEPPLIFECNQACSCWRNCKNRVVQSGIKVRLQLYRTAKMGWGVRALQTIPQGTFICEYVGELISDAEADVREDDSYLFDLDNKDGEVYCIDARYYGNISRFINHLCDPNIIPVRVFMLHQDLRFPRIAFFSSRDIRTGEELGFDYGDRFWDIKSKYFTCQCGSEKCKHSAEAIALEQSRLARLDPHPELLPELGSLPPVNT
Summary of the method: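 Readings reflect AlphaScreen signal from monomethyl-H3K9 antibody detection. HMT at 20 nM; substrate b-H3K9 500 nM; cofactor SAM 20 uM; 2 h RT reaction; compounds tested as titrations in qHTS with 15 min preincubation.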
On the % scale 0 is the no-effect control and ±100 the full control effect; potency means the concentration at half of the fitted maximal effect; tags describe the fitted curve by direction and shape.

SMILES | Potency | activity, negative = inhibition
CCOc1ccc(NC(=O)CC2C(=O)N(c3ccccc3)C(=O)N2Cc2cccc(OC)c2)cc1 (configuration not stated) | inconclusive: 5.62 µM [inhibitor, partial curve, poor fit] | –
COc1ccc(Cc2c(N)nc(N)nc2N)cc1 | inactive | –
COc1cccc(C2CC(c3cccs3)Nc3ncnn32)c1 (configuration not stated) | inconclusive: 89.1 µM [inhibitor, single point] | –
CCCOC(=O)C(C)Sc1n[nH]c(=O)[nH]c1=O (configuration not stated) | inconclusive: 35.5 µM [inhibitor, partial curve] | –
COc1ccc(C2CC(=O)c3sc(N)nc3C2)cc1 (configuration not stated) | inconclusive: 35.5 µM [inhibitor, single point] | –
CCC(OC(=O)CC1Sc2ccccc2NC1=O)C(=O)NCC1CCCO1 (configuration not stated) | – | inconclusive: -68.3% [inhibitor]
CC(C)(C)n1nnnc1C(c1cccs1)N(Cc1ccccc1)Cc1ccco1 (configuration not stated) | inconclusive: 89.1 µM [inhibitor, single point] | –
COc1c(C)cc(Br)cc1C(=O)Nc1cccc(-c2nc3ncccc3o2)c1 | inconclusive: 3.98 µM [inhibitor, partial curve, poor fit] | –
Cc1c(NC(=O)COC(=O)CCC(=O)c2ccc(Cl)cc2)c(=O)n(-c2ccccc2)n1C | inactive | –
CC(C)(C)c1ccc(C(CC(=O)O)NC(=O)Cc2ccc(Cl)cc2)cc1 (configuration not stated) | inactive | –
O=C(Oc1cccc(C(=S)N2CCOCC2)c1)c1ccc([N+](=O)[O-])cc1 | active: 31.6 µM | –
O=C(Cn1c(SCc2ccccc2F)nc2cccnc21)Nc1ccc(F)c(Cl)c1 | inconclusive: 10 µM [inhibitor, partial curve, poor fit] | –
Cc1ccc2nc(NC(=O)CSc3nc(=O)n(CCN(C)C)c4c3CCCC4)sc2c1 | inconclusive: 50.1 µM [inhibitor, partial curve] | –
O=C(CSc1ncnc2sc(-c3ccccc3)cc12)NC1CCS(=O)(=O)C1 (configuration not stated) | inactive | –
CCCCn1nnc(NC(=O)c2ccc(-c3cccc([N+](=O)[O-])c3)o2)n1 | inconclusive: 79.4 µM [inhibitor, single point] | –
COc1ccc(S(=O)(=O)N2CCC(C(=O)N3CCc4ccccc4C3)CC2)cc1Cl | inactive | –
COc1ccc(Cl)cc1C1CC(=O)Nc2cc3c(cc21)OCCO3 (configuration not stated) | inconclusive: 7.94 µM [inhibitor, partial curve, poor fit] | –
CCCn1c(/N=C/c2cc(OC)ccc2O)nc2ccccc21 | inconclusive: 89.1 µM [inhibitor, single point] | –
CCCCNc1sc(S(=O)(=O)CCC)nc1S(=O)(=O)c1ccc(C)cc1 | inactive | –
COc1cccc(/C=N/N2CCN(c3ccc(Cl)cc3)CC2)c1OC | inactive | –
O=C(NCc1cccnc1)/C(=C\c1ccc(-c2ccc(Br)cc2)o1)S(=O)(=O)c1ccccc1 | active: 14.1 µM | –
CCOc1ccc(-c2nc(-c3cccs3)c(CC(=O)O)s2)cc1OC | inconclusive: 50.1 µM [inhibitor, partial curve] | –
Cc1cccc(NC(=O)c2ccc(OCc3c(C)noc3C)cc2)n1 | – | inactive: 1.94% [at 12.7 µM]
CC(C)Cc1ccc(C(C)C(=O)Nc2cccnc2)cc1 (configuration not stated) | inconclusive: 89.1 µM [inhibitor, single point] | –

SMILES | Potency | activity, negative = inhibition
COc1cccc(CNC(=O)CSc2nnc3c(n2)[nH]c2ccccc23)c1 | inactive | –
Cc1cc(C(=O)Nc2ccc(C(=O)O)cc2)c(C)o1 | inconclusive: 8.91 µM [inhibitor, partial curve, poor fit] | –
Cc1cccc(NC(=O)C2C(C(=O)O)C3C=CC2C32CC2)c1C (configuration not stated) | inactive | –
COc1ccc(NS(=O)(=O)c2cccc(NC(=O)COc3ccc(OC)cc3)c2)cc1 | inconclusive: 70.8 µM [inhibitor, partial curve] | –
COc1ccc(CCNC(=O)CC2SC(=NCc3ccccc3OC)NC2=O)cc1 (configuration not stated) | inconclusive: 50.1 µM [inhibitor, partial curve] | –
C#Cc1ccc([C@@H]2C=C(C(=O)OCC=C)O[C@H](OCCCCO)C2)cc1 | – | inconclusive: -68% [inhibitor]
CCC/C(O)=C1\C(=O)CC(c2ccccc2)CC1=NCCc1c(C)[nH]c2ccc(C)cc12 (configuration not stated) | inactive | –
N=c1sccn1CC(=O)Nc1ccccc1Oc1ccccc1 | inconclusive: 89.1 µM [inhibitor, single point] | –
COc1ccc(N2CC(C)Cn3c2nc2c3c(=O)n(Cc3ccc(F)cc3)c(=O)n2C)c(OC)c1 (configuration not stated) | inconclusive: 15.8 µM [inhibitor, full curve, poor fit] | –
Cc1ccc(C)c(OCCCN2CCNCC2)c1 | inconclusive: 79.4 µM [inhibitor, single point] | –
C=C(C)[C@H]1CC=C(C)/C(=N/NC(=O)CNc2ccccc2OC)C1 | – | inactive: 24.1% [at 0.0925 µM]
CCCSc1nnc2c(n1)OC(c1ccc(OCC(=O)O)cc1)Nc1ccccc1-2 (configuration not stated) | inactive | –
C=CCC1(NC(C)c2ccccc2)CCCCC1 (configuration not stated) | inactive | –
CSCCC(NC(=O)c1ccoc1C)C(=O)O (configuration not stated) | inconclusive: 39.8 µM [inhibitor, single point] | –
CCCCN1CCC(n2c(=O)[nH]c3ccccc32)CC1 | active: 9.47 µM | –
Cc1c(C(=O)N(Cc2ccc(N(C)C)cc2)Cc2ccco2)oc2cc(Br)ccc12 | inconclusive: 3.16 µM [inhibitor, full curve, poor fit] | –
Clc1cccc(CN2CCCCCC2)c1Cl | active: 20 µM | –
COc1ccc(-c2ccc(CCC(=O)O)n2CC(=O)Nc2cccc(Cl)c2C)cc1 | inconclusive: 25.1 µM [inhibitor, partial curve, poor fit] | –
CCOc1ccc(NCc2nnc(SCc3ccc(Cl)cc3)n2-c2ccccc2)cc1 | active: 25.1 µM | –
CCOc1ncccc1C(=O)Nc1cc(S(=O)(=O)N2CCCCC2)ccc1C | inconclusive: 39.8 µM [inhibitor, single point] | –
CCN(CC)C(=O)c1[nH]cnc1C(=O)N[C@@H](C)c1ccccc1 | – | inactive: -2.95% [at 0.501 µM]
CCc1nc2sc3c(=O)[nH]cnc3c2c2c1CSC(C)(C)C2 | active: 2.24 µM | –
COc1cccc(N2CCN(C(=O)c3ccc4nc(N5CCCCC5)sc4c3)CC2)c1 | active: 39.8 µM | –
CCCCn1cc(S(=O)(=O)c2ccc(CC)cc2)c(=O)c2cc(F)c(N3CCOCC3)cc21 | inactive | –

SMILES | Potency | activity, negative = inhibition
COc1cccc(C(c2sc3nc(-c4ccco4)nn3c2O)N2CCN(c3ccccc3F)CC2)c1 (configuration not stated) | inconclusive: 12.6 µM [inhibitor, partial curve] | –
CC(O)Cn1ccccc1=N (configuration not stated) | inconclusive: 89.1 µM [inhibitor, single point] | –
CCOc1ncccc1C(=O)NNC(=O)c1cccc(S(=O)(=O)Nc2ccccc2OC)c1 | inactive | –
Cc1ccc(OCC(=O)Nc2ccc3[nH]c(=O)sc3c2)cc1 | inactive | –
CC(C)(C)n1nnnc1C(c1cccnc1)N1CCN(c2cccc(C(F)(F)F)c2)CC1 (configuration not stated) | inconclusive: 39.8 µM [inhibitor, single point] | –
Fc1ccccc1C1c2[nH]c3ccccc3c2CCN1Cc1ccoc1 (configuration not stated) | inconclusive: 50.1 µM [inhibitor, partial curve] | –
O=C(/C=C/c1ccc(Br)cc1)c1ccc(NC2=NCCCS2)cc1 | inconclusive: 28.2 µM [inhibitor, single point] | –
Cc1cccc(C)c1OCc1nc2ccccc2[nH]1 | inconclusive: 89.1 µM [inhibitor, partial curve, poor fit] | –
N/C(=N\OS(=O)(=O)c1ccc2ccccc2c1)c1cccnc1 | inconclusive: 39.8 µM [inhibitor, full curve] | –
COc1ccc(N2CCN(C(=O)c3cc4c(s3)CCCCC4)CC2)cc1 | inconclusive: 6.31 µM [inhibitor, single point] | –
Cc1ccc(NC(=O)CCN2C(=O)c3ccccc3C2=O)cc1 | inactive | –
CN1CCN(C(=O)CCCN2C(=O)/C(=C/c3cccc(Br)c3)SC2=S)CC1 | active: 39.8 µM | –
CC[n+]1c(C)sc2sc3ccccc3c21 | active: 1 µM | –
COC(=O)C1C(=O)c2c([nH]c(C(=O)OCCSC)c2C)CC1C (configuration not stated) | inconclusive: 89.1 µM [inhibitor, single point] | –
CN(CC(=O)Nc1cccc(F)c1)C(=O)c1ccc(-c2cccc(C(F)(F)F)c2)o1 | active: 17.8 µM | –
CCCc1ccc(S(=O)(=O)N2CCN(C(C)C(=O)NCc3ccccc3)CC2)cc1 (configuration not stated) | active: 56.2 µM | –
O=Nc1c(O)n(Cc2ccc(Cl)cc2)c2ccccc12 | inactive | –
CN1CCN(C(c2cccnc2)c2ccc3cccnc3c2O)CC1 (configuration not stated) | inconclusive: 0.794 µM [inhibitor, partial curve, poor fit] | –
CC(=O)N(c1cccc(Cl)c1)c1nc(C)cc(C)c1C#N | – | inactive: 24.4% [at 12.7 µM]
Cc1cc(OCc2cc(C(=O)N3CCC(Oc4cccnc4)CC3)no2)cc(C)c1Cl | inconclusive: 8.91 µM [inhibitor, partial curve, poor fit] | –
CCCCc1nc2ccccc2c(NC(=O)CN(CC)CC)c1CCC | active: 31.6 µM | –
Cc1ccc(C)c(NC(=S)NCc2ccccc2)c1 | inactive | –
C#CCOCCOCCOCCNc1nc(N2CCN(C(=O)[C@H](Cc3cc4ccccc4[nH]3)n3cc([C@@H](N)Cc4ccc(O)cc4)nn3)CC2)nc(N2CCN(C(=O)[C@H](Cc3cc4ccccc4[nH]3)n3cc([C@@H](N)CC(C)C)nn3)CC2)n1 | – | inconclusive: -74.6% [inhibitor] [at 12.7 µM]
COc1ccc(CCNC(=O)C2CC(c3cc(C(F)(F)F)cc(C(F)(F)F)c3)=NO2)cc1 (configuration not stated) | inconclusive: 12.6 µM [inhibitor, single point] | –
